Laboratory results: PubChem BioAssay AID686971 (National Center for Advancing Translational Sciences (NCATS), 2013)
The whole screen tested about 360,000 compounds, of which about 7,500 (2.1%) were called active. Inconclusive results, whose numbers are uncertain, are shown with a selection of clear calls. Calls follow the shape of the dose curve; as a rule, active = well fitted cell-killing curve with a large enough effect; inconclusive = small, poorly fitted or top-dose-only effect, or effect the other way, or another doubt; inactive = no such curve, though single readings can be large or run the other way. Potencies of inconclusive entries are left out as doubtful fits.

Experiment: qHTS for induction of synthetic lethality in tumor cells producing 2HG: qHTS for the HT-1080-IDH1KD cell line;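 as to activity, negative = toxicity: 0% = DMSO wells and -100% = cell-free medium wells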
Conditions: HT-1080 IDH1 knockdown viability, ATP luminescence, 48 h; activity, negative = toxicity: at 46.1 µM (top of the series) unless noted
Outline: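 % activity derives from luminescence (CellTiter-Glo), normalised to DMSO and no-cell wells. HT-1080-IDH1KD cells, 750/well, had 48 h compound exposure at 37 °C.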
Potency is read from the fitted curve at half-maximal effect; tags tell the direction and shape of the fitted curve.

| SMILES | Potency | activity, negative = toxicity |
| --- | --- | --- |
| CC(=O)Nc1nc(C)c(-c2csc(Nc3ccc(S(N)(=O)=O)cc3)n2)s1 | inconclusive [cytotoxic, single point] | – |
| O=C(CSc1ccccc1)Nc1ccc(S(=O)(=O)NCC2CCCO2)cc1 (stereo unspecified) | inconclusive [cytotoxic, single point] | – |
| CC1(c2ccc3ccccc3c2)NC(=O)N(CC(=O)N2CCN(Cc3ccccc3)CC2)C1=O (stereo unspecified) | – | inactive: -17.5% |
| NS(=O)(=O)c1ccc(NC(=O)COC(=O)/C=C/c2ccc([N+](=O)[O-])cc2)cc1 | – | inactive: 3.67% |
| CC1CCCN(CC(=O)Nc2cc(Cl)ccc2Oc2ccccc2)C1 (stereo unspecified) | inconclusive [cytotoxic, partial curve] | – |
| CC1=C(C(=O)OC2CCCCC2)C(c2cccnc2)n2nnnc2N1 (stereo unspecified) | – | inactive: -8.2% |
| CC(Nc1nc(-c2ccccc2O)nc2ccccc12)c1ccccc1 (stereo unspecified) | inconclusive [cytotoxic, partial curve, poor fit] | – |
| O=C(Cc1ccc2c(c1)OCO2)NN=Cc1ccc([N+](=O)[O-])o1 | – | inactive: -20.8% |
| COc1ccc(CNC(=O)Nc2ccc3c(c2)N(C)C(=O)CS3)cc1 | – | inactive: 5.01% |
| CCCN(CCC)C1=CC(=[N+]2CCCC2)CC(C)(C)C1 | active: 2.31 µM | – |
| Cc1cccc(NC(=O)c2ccc3ccccc3n2)c1C | inconclusive [cytotoxic, partial curve] | – |
| COc1cc([N+](=O)[O-])ccc1NC(=O)NCC1CCN(Cc2ccc(Cl)cc2)CC1 | inconclusive [cytotoxic, single point] | – |
| CCOc1ccccc1/C=C/c1nc2ccccc2[nH]c1=O | inconclusive [cytotoxic, single point] | – |
| COc1ccc(C[C@@H]2OC3(C=CC(=O)C=C3)O[C@H]2Cc2ccc(OC)cc2)cc1 | active: 1.3 µM | – |
| O=C(N/N=C/C1CC=CCC1)c1cc2ccccc2cc1O (stereo unspecified) | active: 18.4 µM | – |
| OCC(CO)(CO)N=Cc1c(O)ccc2ccccc12 | inconclusive [cytotoxic, single point] | – |
| COC(=O)CCn1[nH]c(=O)c2ccccc2c1=O | – | inactive: 28.9% |
| N=c1n(CCN2CCCCC2)c2ccccc2n1CC(O)c1ccc(Cl)c(Cl)c1 (stereo unspecified) | active: 12.6 µM | – |
| Cc1cc(C)c2nc3nc(C)cc(C)c3c(N)c2c1 | inconclusive [cytotoxic, single point] | – |
| CC1CCN(CCCNC(=O)c2ccc(CSCc3cccc(Cl)c3)o2)CC1 | inconclusive [cytotoxic, single point] | – |
| COc1ccc(-c2cc(-c3nc4ccccn4c3NCc3ccccc3)ccc2OC)cc1 | inconclusive [cytotoxic, single point] | – |
| COc1ccc(C(O)c2nc3ccccc3n2C)cc1OC (stereo unspecified) | – | inactive: -29.1% |
| CCCCNC(=O)C[C@@H]1C[C@@]2(C(=O)OC)CCCCC=C2N(CCc2ccc(OC)c(OC)c2)C1=O | – | inactive: 0.696% |

| SMILES | Potency | activity, negative = toxicity |
| --- | --- | --- |
| CCc1ccc(C(=O)Nc2nc3ccccc3[nH]2)cc1 | inconclusive [cytotoxic, partial curve] | – |
| O=C(Nc1ccc(-n2cccn2)cc1)C1CCCCN1Cc1cccc2c1OCO2 (stereo unspecified) | inconclusive [cytotoxic, single point] | – |
| COc1ccccc1CN1CCNC(=O)C1CC(=O)N(C)C1CCOCC1 (stereo unspecified) | – | inactive: 10.9% |
| COc1cccc(-c2cc(NC=O)c3ncc(-c4cc(OC)c(OC)c(OC)c4)n3c2)c1 | inconclusive [cytotoxic, full curve, poor fit] | – |
| CC(C)=C1C2CCC1C(C(=O)Nc1sc(C)c(-c3ccc(C(C)C)cc3)c1C(N)=O)C2C(=O)O (stereo unspecified) | active: 16.4 µM | – |
| Fc1ccc(CN2CCN(c3ncnc4scc(-c5ccc(F)cc5)c34)CC2)cc1 | inconclusive [cytotoxic, partial curve, poor fit] | – |
| O=C(NC(=S)Nc1ccccc1O)c1ccc(Cl)cc1Cl | inconclusive [cytotoxic, partial curve] | – |
| Cc1oc2c(C)c(O)ccc2c(=O)c1-c1cnn(-c2ccccc2)c1 | – | inactive: 2.29% |
| O=C(Nc1ccc2c(c1)OCO2)C1CCCN(c2nc3ccccc3s2)C1 (stereo unspecified) | inconclusive [cytotoxic, single point] | – |
| Cc1cc2nc(SCCN3CCCC3)[nH]c2cc1C | inconclusive [cytotoxic, single point] | – |
| CSC1=NC(C(Cl)(Cl)Cl)N=C(c2ccccc2)N1 (stereo unspecified) | active: 20.6 µM | – |
| CCSc1ccc([C@@H]2[C@@H]3C(=O)N(CC)C(=O)[C@@H]3[C@]3(C(=O)OC)CCCCN23)cc1OC | – | inactive: 1.21% |
| C/C(=N\NC(=O)c1ccc(N2CCCC2=O)cc1)c1ccc(O)cc1O | – | inconclusive: -30.9% [cytotoxic] |
| COc1ccc(OC)c(Cc2cnc3nc(N)nc(N)c3c2C)c1 | active: 0.0103 µM | – |
| O=S1(=O)C=CC(Nc2cccc(Cl)c2)C1 (stereo unspecified) | inconclusive [cytotoxic, single point] | – |
| O=C(CCN1C(=O)C2C3CCC(C3)C2C1=O)Nc1ccc(Br)cc1 (stereo unspecified) | – | inactive: -10.3% |
| CCCOc1ccc(Br)cc1CSC(=N)N | inconclusive [cytotoxic, single point] | – |
| CC1CCN(CC(=O)N2CCCc3c2c(=O)oc2ccc(OCc4ccccc4)cc32)CC1 | inconclusive [cytotoxic, single point] | – |
| CN(C)Cc1csc(NC(=O)Nc2ccccc2-c2ccccc2)n1 | inconclusive [cytotoxic, single point] | – |
| COc1ccccc1NC(=O)c1nc(S(=O)(=O)Cc2ccccc2)ncc1Cl | active: 3.66 µM | – |
| COc1ccc(S(=O)(=O)n2nc(-c3ccc(Cl)cc3)cc2N)cc1OC | inconclusive [cytotoxic, single point] | – |
| O=C(CSc1nc(-c2ccc(Cl)cc2)cs1)Nc1cccc([N+](=O)[O-])c1 | inconclusive [cytotoxic, single point] | – |
| O=c1[nH][nH]c2c1[C@H](c1ccc(F)cc1)O[C@H](CCC(F)(F)F)C2 | inconclusive [cytotoxic, single point] | – |
